Results published in PubChem BioAssay AID652104 (National Center for Advancing Translational Sciences (NCATS), 2013).
In all, about 410,000 compounds went through this assay and about 7,200 (1.8%) were called active. This list was built around the results that the source calls inconclusive (neither active nor inactive); the mix of calls is not that of the screen. The call rests on the fitted dose curve; in most records, active means well fitted activation curve with a large enough effect; inconclusive means small, poorly fitted or top-dose-only effect, or another doubt; inactive means no such curve, though single readings can be large or run the other way. No potency is given beside an inconclusive call; the fits are too rough.

experiment: qHTS of TDP-43 Inhibitors; details: TDP-43 expressing yeast growth rescue, BacTiter-Glo, 24 h; growth rescue (activation): at 46.1 µM (top of the series) unless noted; further: nearly all actives have a fitted effect of over 50% in size; on growth rescue (activation): % of control where 0% means no effect
Summary of the method: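 Yeast expressing TDP-43 (pregrown in raffinose, seeded at OD600=0.02 in galactose medium) exposed to compounds 24 hr at 30 deg C. Growth read by BacTiter-Glo luminescence; rescue of toxicity appears as increased signal.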
Potency means the concentration at half of the fitted maximal effect; tags describe the fitted curve by direction and shape.

SMILES | Potency | growth rescue (activation)
O=C(COC(=O)c1nc(Cl)ccc1Cl)NCc1ccc(Cl)cc1 | active: 17.8 µM | –
Cc1ccnc(NC(=O)/C=C/c2ccccc2Cl)c1 | inconclusive [activator, partial curve] | –
O=C(NCCC1=CCCCC1)c1ccc(Br)o1 | inconclusive [activator, partial curve] | –
COCCCNC(=O)c1cc2c(=O)oc3ccc(C)cc3c2s1 | inconclusive [activator, full curve, poor fit] | –
O=C(Nc1cc(Cl)cc(Cl)c1)c1cccnc1 | inconclusive [activator, single point] | –
Cc1ccc(-c2nc3c4ccccc4[nH]c(=O)n3n2)cc1 | inconclusive [activator, partial curve, poor fit] | –
CN(Cc1ccccc1)Cc1nc2c(c(=O)n(C)c(=O)n2C)n1CCc1ccccc1 | inactive | –
CCN(C(=O)/C=C/c1cc(OC)c(OC)c(OC)c1)C1CCCCC1 | inconclusive [activator, partial curve] | –
CCc1nc2ccc(C(=O)N3CCN(c4cccc(C)c4C)CC3)cc2nc1CC | inconclusive [activator, single point] | –
COC(=O)CCC(=O)OC1(C)C(=O)C2=COC(c3ccc(OC)cc3)=CC2=C(Br)C1=O (configuration not stated) | – | inconclusive: -94.2% [activator]
O=C(c1ccc(-c2ccccc2Cl)o1)N1CCN(c2ccccc2O)CC1 | active: 22.4 µM | –
COc1cccc(NC(=O)CSc2nc3cc(OC)c(OC)cc3c3nc(-c4ccccc4)nn23)c1 | inactive | –
CCn1c2ccccc2c2cc(CN3CCN(Cc4ccccc4Cl)CC3)ccc21 | inactive | –
COc1cc(OC)c(NC2(c3ccccc3)C(=O)c3ccccc3C2=O)cc1Cl | inconclusive [activator, partial curve, poor fit] | –
CC(=O)Oc1ccc([C@@H]2COc3c(ccc4c3C=CC(C)(C)O4)C2)c(OC(C)=O)c1 | inconclusive [activator, partial curve] | –
COc1ccc(N=CC2=C(O)CC(C)(C)CC2=O)cc1 | inconclusive [activator, partial curve] | –
Cc1csc(NC(=O)CCc2nc3ccccc3s2)n1 | inconclusive [activator, single point] | –
O=C(NC(=S)Nc1cccnc1)c1cc2ccccc2o1 | inconclusive [activator, partial curve] | –
Cc1ccc(NC(=O)c2c(C)noc2-c2snnc2C)cc1 | inconclusive [activator, partial curve] | –
Cc1ccc(CNC(=O)c2cccnc2)cc1 | inconclusive [activator, single point] | –
O=C(c1cc(-c2ccc(O)cc2)on1)N1CCCc2ccccc21 | active: 12.6 µM | –
CCc1cccc(-n2c(C)nc3c(cnn3-c3ccc(C)c(C)c3)c2=O)c1 | inconclusive [activator, single point] | –
Cc1ccccc1Sc1ncnc2onc(C)c12 | inconclusive [activator, single point] | –

SMILES | Potency | growth rescue (activation)
Cc1ccc(-c2nnc(N3CCN(C(=O)COc4ccccc4)CC3)c3ccccc23)cc1 | inconclusive [activator, single point] | –
O=C(NC1CCCCC1)N(c1ccccc1)c1nnc(-c2cccc([N+](=O)[O-])c2)s1 | inconclusive [activator, single point] | –
CCOc1ccccc1CNC(=O)c1cc2n(n1)CCCN(Cc1ccc(C)cc1)C2=O | active: 35.5 µM | –
O=C(Nc1ccccc1)C1Cc2c(-c3cccc(F)c3)ccnc2O1 (configuration not stated) | inconclusive [activator, single point] | –
CCC(=O)c1ccc(OCC(=O)NCCC2=CCCCC2)c(OC)c1 | inconclusive [activator, partial curve] | –
COc1cccc(C2CC(c3c(Cl)cccc3Cl)n3nc(N)nc3N2)c1 (configuration not stated) | inconclusive [activator, partial curve] | –
Oc1ccc(Cl)cc1CNc1ccc(Br)cn1 | inconclusive [activator, single point] | –
Cc1cc(C)c(S(C)(=O)=O)c(Oc2cccc(Cl)c2)n1 | inconclusive [activator, partial curve, poor fit] | –
COc1nnc(-c2ccc(N3CCCCC3)c(NC(C)=O)c2)c2ccccc12 | active: 22.4 µM | –
Cn1ccc2c(/C=C/c3ccc(F)cc3)cc3c(c21)C1CCC3O1 (configuration not stated) | inconclusive [activator, partial curve] | –
Cc1sc2ncn(CC(=O)N3CCN(c4ccc(F)cc4)CC3)c(=O)c2c1S(=O)(=O)N1CCCCC1 | inactive | –
Cc1cccc(N2CCN(C(=O)Cc3c(C(=O)O)[nH]c4ccc(Cl)cc34)CC2)c1C | inconclusive [activator, partial curve] | –
Cc1cc(C)n2nc(C(=O)NCc3ccccc3)nc2n1 | inactive | –
Fc1ccc(C2c3cccn3CCN2C(=S)Nc2cccc(Br)c2)cc1 (configuration not stated) | inconclusive [activator, single point] | –
COc1cccc(NC(=O)Cn2c(=O)n(-c3ccc(Cl)cc3)c(=O)c3oc4ccccc4c32)c1 | inactive | –
CC(C)C(=O)N1c2ncnn2C2(CCCCC2)[C@@H]2CCCC[C@@H]21 | inactive | –
COc1ccc(C(=O)CSc2nc(-c3ccccn3)nc(C)c2Cl)cc1 | – | inconclusive: 41.2% [activator]
Cc1ccc(Cl)cc1NS(=O)(=O)Cc1ccccc1 | inconclusive [activator, single point] | –
O=C(O)c1cc(N/N=C/c2ccc(-c3ccccc3)cc2)ccc1Cl | active: 35.5 µM | –
COc1ccc(C2CC(=O)N(Cc3ccc(F)cc3)c3ccccc3S2)cc1 (configuration not stated) | active: 15.8 µM | –
COc1cc2c(cc1OC)[C@H](C)N(C(=O)CSc1nc(O)c(C(C)C)c(=O)[nH]1)CC2 | inconclusive [activator, single point] | –
CCCCn1nnc(NC(=S)NC(=O)c2ccc(OCC)c([N+](=O)[O-])c2)n1 | inconclusive [activator, partial curve] | –
COc1cc2c(cc1OC)C(c1cccs1)N(C(=O)C(C)C)CC2 (configuration not stated) | inconclusive [activator, single point] | –

SMILES | Potency | growth rescue (activation)
COc1cccc2sc(N(Cc3cccnc3)C(=O)Cc3ccccc3)nc12 | inconclusive [activator, single point] | –
COc1ccc([C@H]2C[C@@H](O)[C@H](n3cc(COC(=O)c4ccccc4)nn3)CN2C(=O)c2cccs2)cc1 | inconclusive [activator, full curve, poor fit] | –
COC(=O)c1ccc(Cn2cnc3ccccc3c2=O)cc1 | inconclusive [activator, single point] | –
CCCNC(=O)C(=O)N/N=C/c1cccs1 | inconclusive [activator, single point] | –
CC(C)=CCc1ccc(O)c(=O)cc1C(C)C | inconclusive [activator, single point] | –
CCOCCCNC(=O)c1cc(-c2ccc(Br)s2)nc2ccccc12 | inconclusive [activator, full curve, poor fit] | –
Cc1ccc(/C=N/n2c(-c3ccco3)n[nH]c2=S)cc1 | inconclusive [activator, single point] | –
COc1ccc(-c2ccc(C(=O)Nc3ccc(NC(C)=O)cc3)c3occc23)c(C)c1 | inconclusive [activator, full curve] | –
COc1ccc(-n2cnnc2SCc2csc(-c3ccccc3)n2)cc1 | inconclusive [activator, partial curve] | –
O=C(COC(=O)CCc1ccc(S(=O)(=O)N2CCOCC2)cc1)Nc1ccccc1[N+](=O)[O-] | – | inconclusive: -3.71% [activator]
CCc1cc(Cn2nc(-c3ccccc3)cc2C(=O)NCc2ccc(C)cc2)on1 | inconclusive [activator, partial curve] | –
CCOc1ccc(CCNC(=O)CCc2c(C)nc3c(-c4ccccc4)c(C)nn3c2C)cc1OCC | inactive | –
CCOc1cc(/C=C2\COc3ccccc3C2=O)cc(Br)c1OCC(=O)N(C)C | active: 22.4 µM | –
Cc1nc2ccc(S(=O)(=O)CCC(=O)Nc3ccc(C)c(C)c3)cc2s1 | inactive | –
O=C(OCC(=O)c1cccs1)c1ccc([N+](=O)[O-])o1 | inconclusive [activator, single point] | –
COc1cccc(NC(=O)C2(C)CCN2C(=O)Cc2cccc3ccccc23)c1 (configuration not stated) | inconclusive [activator, partial curve] | –
Cc1nc(Nc2ccc(Cl)cc2)cc(-c2ccccc2)n1 | inconclusive [activator, single point] | –
COc1cccc(-c2ccc3c(c2)C2CC3CCN2C(C)=O)c1 (configuration not stated) | inconclusive [activator, partial curve, poor fit] | –
COc1cc(C=O)ccc1OCc1ccc(Cl)nc1 | inconclusive [activator, single point] | –
Cc1ccc(CN(C(=O)COc2ccc(Cl)c(C)c2)C2CCS(=O)(=O)C2)o1 (configuration not stated) | inactive | –
CCC(=O)N1CCCC(C)(C(=O)Nc2ccc(OC)c(F)c2)C1 (configuration not stated) | inconclusive [activator, full curve, poor fit] | –
